# Test results reported in PubChem BioAssay AID488969 (Vanderbilt High Throughput Screening Facility, 2010).
# Whole data set: some 110,000 compounds, median “z-score” near -0.1, cut for the highest 2% near 2. The list shows a part of the results. Activity calls are given as the source filed them.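 The calls were made as follows: active = z-score in the third read window above 3 or below -3; inactive = the rest.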
# Target: Metabotropic glutamate receptor 8 (Rattus norvegicus) (UniProt P70579)
# Test: mGluR8 Gi/Go-coupled signaling modulation – cell-based, rat, thallium flux, HTS, primary screen (AID 488969)
# Conditions: HEK293 rat mGluR8, GIRK (G protein-gated inwardly rectifying potassium channel) thallium flux, FluoZin2; at 10 µM; stronger effect = higher value; submaximal glutamate (EC20) added with thallium
# Sequence of UniProt P70579 (P70579 whole entry, looked up): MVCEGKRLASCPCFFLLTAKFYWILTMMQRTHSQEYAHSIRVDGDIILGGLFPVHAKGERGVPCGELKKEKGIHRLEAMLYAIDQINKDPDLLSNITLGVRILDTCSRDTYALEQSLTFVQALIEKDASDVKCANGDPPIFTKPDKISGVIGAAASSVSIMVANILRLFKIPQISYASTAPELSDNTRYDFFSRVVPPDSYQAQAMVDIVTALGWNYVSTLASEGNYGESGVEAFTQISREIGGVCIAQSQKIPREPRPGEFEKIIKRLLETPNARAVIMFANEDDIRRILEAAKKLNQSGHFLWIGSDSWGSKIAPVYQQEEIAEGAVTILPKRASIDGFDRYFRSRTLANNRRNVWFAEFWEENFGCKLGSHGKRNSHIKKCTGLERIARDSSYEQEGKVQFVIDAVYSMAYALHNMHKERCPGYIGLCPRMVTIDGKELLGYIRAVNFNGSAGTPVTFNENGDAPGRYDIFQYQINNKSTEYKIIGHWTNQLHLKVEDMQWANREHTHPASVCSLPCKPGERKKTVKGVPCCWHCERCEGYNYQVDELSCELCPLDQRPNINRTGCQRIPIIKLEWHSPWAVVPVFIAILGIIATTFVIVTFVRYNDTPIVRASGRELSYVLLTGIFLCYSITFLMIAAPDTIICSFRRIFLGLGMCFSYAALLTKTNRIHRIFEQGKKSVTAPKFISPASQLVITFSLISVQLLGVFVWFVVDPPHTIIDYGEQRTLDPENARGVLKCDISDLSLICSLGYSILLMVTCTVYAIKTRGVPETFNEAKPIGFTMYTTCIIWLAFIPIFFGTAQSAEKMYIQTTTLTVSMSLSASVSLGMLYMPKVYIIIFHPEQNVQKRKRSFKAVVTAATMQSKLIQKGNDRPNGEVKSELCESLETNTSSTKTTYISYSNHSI
row,Structure (SMILES),z-score
1,Cc1ccc2c(CN3CCN(Cc4ccc5c(c4)OCO5)CC3)cc(=O)oc2c1C,1.26
2,CCOc1cccc(C(=O)N(Cc2ccco2)C2CCS(=O)(=O)C2)c1 (stereo not given),-0.365
3,O=C(CSCCNS(=O)(=O)c1ccccc1)Nc1ccccc1,-1.18
4,NC(=O)CSc1nc2ccccc2c(=O)n1Cc1ccco1,-0.321
5,CCC(C)N(C(=O)C(F)(F)F)C(C(=O)NC1CCCCC1)c1ccncc1 (stereo not given),0.117
6,CCOC(=O)Cn1nnnc1CN(Cc1cccs1)Cc1cc2cc(C)ccc2[nH]c1=O,-0.54
7,COC(=O)c1cc(OC)c(OC)cc1NC(=O)CN1CCCCC1,-0.403
8,Cn1c(SCC#N)nnc1-c1ccc2c(c1)OCO2,-0.182
9,Cc1cnc(C(=O)Nc2nccs2)cn1,0.00782
10,O=C(COC(=O)CCSc1ccccc1Cl)Nc1ccc(F)cc1F,-0.501
11,Cc1cccc(C(=O)Nc2ccc(C)c(OC(=O)c3cccc(C)c3)c2)c1,-0.0742
12,Cc1cccc(C(=O)c2cnc3ccccc3c2-c2ccccc2)c1,-0.418
13,CCOc1ccccc1N1CN(CC)CNC1=S,-0.107
14,CCOC(=O)N1CCC(Nc2c(NCCCN(C)Cc3ccccc3)c(=O)c2=O)CC1,-0.407
15,COc1cc(C2C(C#N)=C(C)NC3=C2C(=O)c2ccccc23)cc(OC)c1OC (stereo not given),-0.926
16,COc1ccccc1C(=O)N1CCCC(c2nc(-c3cc(OC)c(OC)c(OC)c3)no2)C1 (stereo not given),1.06
17,Cc1nc([N+](=O)[O-])c(Sc2nc3ccc([N+](=O)[O-])cc3[nH]2)n1Cc1ccccc1,-0.115
18,COc1ccc(Cl)cc1N(CC(=O)Nc1cccc(SC)c1)S(C)(=O)=O,-0.191
19,Cc1ccc(N2C(=O)CC(NCc3ccc4c(c3)OCO4)C2=O)cc1Cl (stereo not given),0.555
20,Cc1ccnc(NC(=O)c2ccccc2[N+](=O)[O-])c1,0.116
21,CC(C)(CC(=O)O)Cc1nc(-c2ccc(Cl)cc2)no1,-0.109
22,CCC(C)Sc1nc2c(cnn2-c2ccc(C)cc2)c(=O)[nH]1 (stereo not given),-0.177
23,COCCn1c(=NC(=O)CSC(C)=O)sc2cc(F)ccc21,0.157
24,COc1ccc(N(C)S(=O)(=O)c2cccc(C(=O)Nc3ccc(OC)nc3)c2)cc1,0.177

row,Structure (SMILES),z-score
1,CCCN(CC1CC1)S(=O)(=O)c1ccc(-n2cnnn2)c(OC)c1,0.0226
2,COc1ccc(NS(=O)(=O)c2c(C)[nH]c(=O)[nH]c2=O)c(OC)c1,-0.223
3,COc1ccc(Br)cc1C(=O)Nc1cccc(-c2nnc(-c3ccco3)o2)c1,-1.55
4,O=C(NCc1ccccc1Cl)c1ccccc1Oc1ccccc1,-0.412
5,Cc1oc2cc(O)ccc2c(=O)c1Oc1ccc2ccccc2c1,-0.419
6,O=c1c2c(n3cnnc3n1-c1ccccc1)-c1ccccc1CC21CCCC1,-0.283
7,Cc1scc(-c2n[nH]c(=S)n2C(C)c2ccccc2)c1C (stereo not given),-1.43
8,O=C(O)C1C2C=CC(C2)C1C(=O)NCCc1ccncc1 (stereo not given),0.718
9,Cn1nnnc1SCC(=O)Nc1nc(-c2ccccc2)c(-c2ccccc2)o1,-0.0372
10,Cc1ccc2c(c1)N(CCC(=O)NCC1COc3ccccc3O1)C(=O)CO2 (stereo not given),0.681
11,COCCN(C(=S)Nc1ccccc1C)C(C)c1cccs1 (stereo not given),-0.521
12,O=C(c1ccccc1NS(=O)(=O)c1cccc(C(F)(F)F)c1)N1CCc2ccccc21,0.396
13,O=C(Nc1nnc(-c2ccccn2)o1)c1cccc(Br)c1,0.334
14,O=C(COc1ccc(Cl)cc1)N(Cc1ccccc1)c1ccccn1,0.67
15,Cn1nnnc1SCc1ccc(C(=O)Nc2ccccc2F)cc1,-0.223
16,COc1ccc(/C=C2\SC(N3CCc4ccccc4C3)=NC2=O)cc1OC,-0.444
17,COc1cccc(C(=O)Nc2nc(-c3ccccc3)c(-c3ccccc3)o2)c1,active: 7.83
18,CC1(C)CC(=O)c2cc(C(=O)Nn3cnnc3)c(=O)n(-c3ccccc3)c2C1,0.645
19,COc1ccc(C2N(c3cccc(Cl)c3)C(=O)C3CCCN32)cc1 (stereo not given),-0.123
20,COc1cc(NC(=O)Cn2nc(Cc3cccnc3)c3ccccc3c2=O)cc(OC)c1OC,-0.0982
21,COCCNC(=O)c1ccc(N2CCC3(CC2)OCCO3)c([N+](=O)[O-])c1,-0.355
22,c1ccc2c(c1)CCCn1nnnc1-2,0.404
23,CCOC(=O)C1=C(N)OC2=C(C(=O)CC(C)(C)C2)C1c1cccnc1 (stereo not given),-0.0823
24,O=C(CSc1nnc(-c2ccccc2NC(=O)c2ccccc2)o1)OC1CCCCC1,-0.228

row,Structure (SMILES),z-score
1,O=c1c2oc3ccccc3c2ncn1Cc1ccccc1F,-0.88
2,CC(=O)Nc1ccc(S(=O)(=O)N2CCC(c3nc4ccccc4[nH]3)CC2)cc1,0.0879
3,COc1ccc(OCC(=O)N/N=C(\C)c2ccc(-n3ccnc3)cc2)cc1,-0.334
4,CC(=O)Nc1nc2n(n1)C(c1ccc(Cl)cc1)C=C(C)N2 (stereo not given),-0.129
5,CCN(/C=N/c1sc2c(c1C#N)CCCCC2)CC,-0.292
6,O=C(OCc1nc2ccc(Cl)cc2n1CCO)c1ccc(O)cc1,-0.133
7,COc1ccc(CNC(=O)C2COc3ccccc3O2)c(OC)c1 (stereo not given),0.821
8,CC(=O)Nc1c(Cl)n(C(C)=O)c2ccccc12,-0.309
9,CCSc1nnc(NC(=O)Cc2ccc(OC)c(OC)c2)s1,0.396
10,Cc1ccc(SCCC(=O)Nc2cccc(N(C)S(C)(=O)=O)c2)cc1,0.206
11,COc1ccc(-n2c(Cc3cccn3C)nnc2SCC(=O)Nc2cccc(C)c2C)cc1,-0.553
12,Cc1cccc(CN2CCN(c3ccccn3)CC2)c1,-0.478
13,COc1cc(NC(=O)Cn2nc(C(F)(F)F)c3c2CCCC3)cc(OC)c1OC,-0.327
14,CC12CN3CC(C)(CN(C1)C3c1ccc(Cl)cc1Cl)C2O (stereo not given),-0.0223
15,CC(=O)c1c(C)[nH]c(C(=O)CSc2ncnc3sc(-c4ccccc4)cc23)c1C,active: 5.38
16,O=C(Cc1cccs1)NCc1ccc(F)cc1,0.123
17,O=C(O)C=C1CCN(c2ncc(C(F)(F)F)cc2Cl)CC1,-0.0252
18,O=C(CN1C(=O)NC2(CCCCCC2)C1=O)N1CCC(Cc2ccccc2)CC1,-0.214
19,COCCCNC(=O)C1CC(=O)OC1c1ccc(OC)c(OC)c1 (stereo not given),0.0285
20,Cc1cccc(N2CCN(C(=O)CCNC(=O)Cn3ccc4ccccc4c3=O)CC2)c1C,-0.914
21,O=C(c1sc2cc([N+](=O)[O-])ccc2c1Cl)N1CCCCC1,-0.324
22,CC(=O)OCC1OC(n2ccc(=O)[nH]c2=O)C(O)C1O (stereo not given),-0.378
